Screen size: about 39,000 compounds; about 220 (0.56%) showed activity. Some of the results follow.
These compounds were tested on Escherichia coli K-12 BW25113 (assay: relative growth (OD600 normalised to plate interquartile mean) (fraction); higher = less growth inhibition, active = 0.2 or less). Settings: 50 µM; LB; incubation time: overnight (16-24 h).
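Further: static incubation at 37 °C against the wild-type strain, values averaged over two biological replicates.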

Row | Compound | relative growth
1 | C[C@H](CO)N1C[C@H](C)[C@@H](CN(C)Cc2ccc(Cl)c(Cl)c2)Oc2ccc(NC(=O)Cc3cn(C)c4ccccc34)cc2C1=O | inactive: 0.991
2 | C[C@@H]1CN([C@@H](C)CO)C(=O)c2cc(NC(=O)CCC(F)(F)F)ccc2O[C@@H](C)CCCCO[C@H]1CN(C)C(=O)NC1CCCCC1 | inactive: 0.994
3 | C[C@H](CO)N1C[C@H](C)[C@@H](CN(C)S(=O)(=O)c2cccs2)Oc2ccc(NC(=O)Cc3ccccc3)cc2C1=O | inactive: 0.996
4 | Cc1noc(C)c1NC(=O)Nc1ccc2c(c1)CC(=O)N([C@H](C)CO)C[C@H](C)[C@@H](CN(C)C(=O)Nc1ccc(C(F)(F)F)cc1)O2 | inactive: 0.992
5 | C[C@H](CO)N1C[C@H](C)[C@@H](CN(C)Cc2ccc(C(=O)O)cc2)Oc2c(NC(=O)Nc3ccc(C(F)(F)F)cc3)cccc2C1=O | inactive: 0.993
6 | CN(C)CC(=O)N[C@@H]1CC[C@@H](CCn2cc(CN(C)C)nn2)O[C@@H]1CO | inactive: 0.976
7 | CC(C)NC(=O)Nc1ccc2c(c1)C(=O)N([C@H](C)CO)C[C@@H](C)[C@@H](CN(C)S(=O)(=O)c1ccc(Cl)cc1)O2 | inactive: 1.01
8 | O=C(C[C@H]1CC[C@H](NC(=O)c2cnccn2)[C@H](CO)O1)NCc1ccccc1F | inactive: 0.984
9 | O=C(C[C@H]1CC[C@H](NS(=O)(=O)c2ccccc2)[C@H](CO)O1)NCc1ccncn1 | inactive: 1.05
10 | O=C(C[C@@H]1CC=CC[C@H](NC(=O)OCC2c3ccccc3-c3ccccc32)C(=O)OC[C@@H](Cc2c[nH]c3ccccc23)NC1=O)N[C@H](CO)Cc1ccccc1 | inactive: 0.937
11 | C[C@H]1CCCCO[C@@H](CN(C)Cc2ccccc2)[C@@H](C)CN([C@@H](C)CO)C(=O)c2cc(NC(=O)NC3CCCCC3)ccc2O1 | inactive: 1.02
12 | COc1ccccc1NCC(=O)NN | inactive: 1.01
13 | C[C@@H]1CN([C@H](C)CO)C(=O)Cc2cc(NC(=O)CCCN(C)C)ccc2O[C@@H]1CN(C)S(=O)(=O)c1cccs1 | inactive: 0.977
14 | COc1ccc(NC(=O)N(C)C[C@H]2OCCCC[C@H](C)Oc3ccc(NS(=O)(=O)c4ccc(Cl)cc4)cc3C(=O)N([C@@H](C)CO)C[C@@H]2C)cc1 | inactive: 1.04
15 | Nc1ccc(C(=O)[O-])cc1.[K+] | inactive: 1.01
16 | C=C(C)C1CCC2(CO)CCC3(C)C(CCC4C5(C)CCC(O)C(C)(C)C5CCC43C)C12 (stereo not given) | inactive: 0.915
17 | C[C@H]1CCCCO[C@@H](CN(C)Cc2ccncc2)[C@@H](C)CN([C@@H](C)CO)C(=O)c2cc(NC(=O)Nc3ccc(C(F)(F)F)cc3)ccc2O1 | inactive: 1.08
18 | O=C(CN1CCOCC1)NCC[C@H]1CC[C@@H](NC(=O)Nc2ccccc2)[C@@H](CO)O1 | inactive: 1.01
19 | COc1ccc(-c2cc(=O)c3c(O)cc(O[C@@H]4O[C@H](CO[C@@H]5O[C@@H](C)[C@H](O)[C@@H](O)[C@H]5O)[C@@H](O)[C@H](O)[C@H]4O)cc3o2)cc1O | inactive: 1.05
20 | COc1ccc(NC(=O)Nc2ccc3c(c2)C(=O)N([C@@H](C)CO)C[C@@H](C)[C@H](CN(C)S(=O)(=O)c2ccc(C)cc2)OCCCC[C@H](C)O3)cc1 | inactive: 1.01

Row | Compound | relative growth
21 | COc1ccc(OC)c(S(=O)(=O)NC(=O)[C@@]2(C)CCN2C(=O)Cc2ccc(Cl)cc2Cl)c1 | inactive: 0.994
22 | CS(=O)(=O)CC(=O)N1C[C@H]2COC[C@@]2(COc2ccccn2)C1 | inactive: 0.993
23 | COc1ccc(-c2cnc3c(c2)C(=O)N([C@H](C)CO)C[C@H](C)[C@H](CN(C)S(=O)(=O)c2cn(C)cn2)O3)cc1 | inactive: 0.967
24 | C[C@H](CO)N1C[C@H](C)[C@H](CN(C)Cc2ccc(C(=O)Nc3ccccc3N)cc2)Oc2c(NC(=O)Nc3ccccc3)cccc2C1=O | inactive: 0.982
25 | C[C@@H]1CN([C@@H](C)CO)C(=O)c2cccc(NC(=O)C3CCOCC3)c2O[C@@H]1CN(C)Cc1ccccc1 | inactive: 0.911
26 | C[C@@H]1CN([C@@H](C)CO)C(=O)c2cc(C#CCN(C)C)cnc2O[C@H]1CN(C)C(=O)Nc1cccc(F)c1 | inactive: 1.03
27 | N[C@@H](CS(=O)O)C(=O)O | inactive: 0.978
28 | COc1ccc([C@@H]([C@H](Cc2ccccc2)OC(C)=O)N2C[C@@H]3[C@H]([C@@H]2Cc2ccccc2)N(C)O[C@@]3(O)[C@@H](O)c2ccccc2)cc1 | inactive: 1.03
29 | CC(C)NC(=O)Nc1ccc2c(c1)C(=O)N([C@H](C)CO)C[C@H](C)[C@@H](CN(C)C(=O)C1CCCCC1)OCCCC[C@@H](C)O2 | inactive: 0.984
30 | COc1ccc(NC(=O)N2C[C@@H](O)COC[C@H]3O[C@@H](CC(=O)NCc4ccccc4OC)CC[C@@H]32)cc1 | inactive: 1.01
31 | C[C@@H]1CCCCO[C@H](CN(C)Cc2ccc(C(F)(F)F)cc2)[C@@H](C)CN([C@@H](C)CO)C(=O)c2cc(NS(=O)(=O)c3ccc(F)cc3)ccc2O1 | inactive: 1.03
32 | C[C@@H]1CN([C@@H](C)CO)C(=O)CCCn2cc(nn2)CO[C@@H]1CN(C)Cc1cccc2c1OCCCO2 | inactive: 1.01
33 | C[C@@H]1CN([C@H](C)CO)C(=O)c2cc(NC(=O)Nc3ccc(C(F)(F)F)cc3)ccc2O[C@H]1CN(C)Cc1ccncc1 | inactive: 0.916
34 | CN(C)CCCNC(=O)C[C@H]1CC[C@H]2[C@@H](COC[C@@H](O)CN2C(=O)Nc2cc(Cl)cc(Cl)c2)O1 | inactive: 0.986
35 | O=C(NO)c1cccc(C(=O)N/N=C/c2cc(I)cc(I)c2O)c1 | inactive: 0.89
36 | Nc1nc(=O)n([C@@H]2O[C@H](CO)[C@@H](O)[C@H]2O)cc1CO | inactive: 0.986
37 | COc1ccc(S(=O)(=O)N(C)C[C@@H]2Oc3ccc(N(C)C)cc3CC(=O)N([C@H](C)CO)C[C@@H]2C)cc1 | inactive: 0.974
38 | COCC(=O)N1CC[C@]2(CC1)CN(Cc1cccc(c1)OC)[C@@H](CO)c1c2c2ccc(cc2n1C)OC | inactive: 1.01
39 | C[C@@H]1CN([C@H](C)CO)C(=O)c2cccc(NC(=O)C3CCCCC3)c2O[C@H]1CN(C)Cc1ccc(Oc2ccccc2)cc1 | inactive: 0.978
40 | COc1ccc(NC(=O)N(C)C[C@@H]2OCCCC[C@@H](C)Oc3ccc(NC(=O)Nc4ccccc4)cc3C(=O)N([C@@H](C)CO)C[C@@H]2C)cc1 | inactive: 1.04

Row | Compound | relative growth
41 | C#Cc1ccc(C(=O)NO)s1 | inactive: 0.952
42 | C[C@H](CO)N1C[C@H](C)[C@@H](CN(C)S(C)(=O)=O)OCCCC[C@H](C)Oc2ccc(NS(C)(=O)=O)cc2C1=O | inactive: 1
43 | COc1ccc([Si](C)(C)[C@H]2[C@H](CCO)O[C@@]3(C(=O)N(Cc4cccc(N5C(=O)c6cccc7cccc5c67)c4)c4ccccc43)[C@@H]2C)cc1 | inactive: 1.05
44 | Cc1noc(C)c1NC(=O)Nc1ccc2c(c1)CC(=O)N([C@H](C)CO)C[C@@H](C)[C@H](CN(C)CC1CC1)O2 | inactive: 1.02
45 | Cc1noc(C)c1NC(=O)Nc1ccc2c(c1)C(=O)N([C@H](C)CO)C[C@H](C)[C@@H](CN(C)S(=O)(=O)c1ccccc1)OCCCC[C@@H](C)O2 | inactive: 1.01
46 | C[C@H](CO)N1C[C@H](C)[C@H](CN(C)C(=O)Nc2ccc(F)cc2)Oc2c(NC(=O)c3nc4ccccc4s3)cccc2C1=O | inactive: 1.03
47 | C[C@@H]1CN([C@@H](C)CO)C(=O)c2c(c3ccccc3n2C)-c2ccccc2CO[C@H]1CN(C)C(=O)c1cc(Cl)cc(Cl)c1 | inactive: 0.998
48 | COC(=O)[C@@H](C)N(C#N)c1nc(C)cc(C)n1 | inactive: 1.01
49 | C[C@H]1CN([C@@H](C)CO)C(=O)c2cccc(NC(=O)C3CCCCC3)c2O[C@H]1CN(C)Cc1ccc(C(F)(F)F)cc1 | inactive: 0.979
50 | C[C@@H]1CCCCO[C@@H](CN(C)Cc2ccc(C(F)(F)F)cc2)[C@@H](C)CN([C@@H](C)CO)C(=O)c2cc(NC(=O)Nc3ccccc3)ccc2O1 | inactive: 0.926
51 | COCC(=O)Nc1ccc2c(c1)OC[C@@H](C)N(Cc1ccccc1F)C[C@@H](C)[C@@H](OC)CN(C)C2=O | inactive: 1.02
52 | CC(=O)Nc1ccc(CN(C)c2c(C)nc3ccc(C(=O)N4CCN(C(=O)c5ccco5)CC4)cn23)cc1 | inactive: 0.985
53 | C[C@@H]1CN([C@H](C)CO)C(=O)c2cccc(NC(=O)Nc3ccccc3)c2O[C@H]1CN(C)Cc1ccc(Cl)c(Cl)c1 | inactive: 0.995
54 | COCC(=O)N1CC[C@]2(CC1)CN([C@@H](CO)c1[nH]c3cc(ccc3c12)OC)S(=O)(=O)C | inactive: 1.02
55 | C[C@@H]1CCCCO[C@H](CN(C)Cc2ccncc2)[C@H](C)CN([C@H](C)CO)C(=O)c2cc(NS(C)(=O)=O)ccc2O1 | inactive: 0.982
56 | C[C@H]1CN([C@@H](C)CO)C(=O)c2cccc(NC(=O)CCCCCC(=O)Nc3ccccc3N)c2O[C@H]1CN(C)C(=O)Nc1ccccc1 | inactive: 0.983
57 | Cc1noc(C)c1NC(=O)N[C@@H]1CC[C@@H](CC(=O)NCCCN(C)C)O[C@H]1CO | inactive: 1
58 | O=C(C[C@@H]1C[C@H]2c3cc(NC(=O)c4ccc5c(c4)OCO5)ccc3O[C@H]2[C@@H](CO)O1)NCc1ccc(Oc2ccccc2)cc1 | inactive: 1.01
59 | C[C@H](CO)N1C[C@H](C)[C@H](CN(C)C(=O)Nc2ccc3c(c2)OCO3)OCCCC[C@H](C)Oc2ccc(NC(=O)Nc3ccc(C(F)(F)F)cc3)cc2C1=O | inactive: 1.01
60 | C[C@H]1CN([C@@H](C)CO)C(=O)c2cccc(NC(=O)C3CC3)c2O[C@H]1CN(C)S(=O)(=O)c1ccccc1 | inactive: 0.968

— the supplement of paper PMC9446081
